Results taken from patent US20220389066A1 (Affibody, published 2022).

T1: HMGB1(disulfide), disulfide linked form of full-length HMGB1 (HMGB1C23-C45C106h) (rat, UniProt P63159 1-215, disulfide C23-C45; C106 reduced)
T1 construct: unlabelled in Biacore and Attana; also called b-HMGB1(disulfide)
T1 sequence: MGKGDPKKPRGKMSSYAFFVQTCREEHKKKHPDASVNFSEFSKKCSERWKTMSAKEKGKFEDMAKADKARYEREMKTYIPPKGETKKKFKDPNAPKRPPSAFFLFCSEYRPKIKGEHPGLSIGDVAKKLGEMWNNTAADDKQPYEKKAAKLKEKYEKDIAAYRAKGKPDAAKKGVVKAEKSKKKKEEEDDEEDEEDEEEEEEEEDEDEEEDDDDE

T2: HMGB1(red), fully reduced form of full-length HMGB1 (HMGB1C23hC45hC106h) (rat, UniProt P63159 1-215, all cysteines reduced (C23h, C45h, C106h))
T2 sequence: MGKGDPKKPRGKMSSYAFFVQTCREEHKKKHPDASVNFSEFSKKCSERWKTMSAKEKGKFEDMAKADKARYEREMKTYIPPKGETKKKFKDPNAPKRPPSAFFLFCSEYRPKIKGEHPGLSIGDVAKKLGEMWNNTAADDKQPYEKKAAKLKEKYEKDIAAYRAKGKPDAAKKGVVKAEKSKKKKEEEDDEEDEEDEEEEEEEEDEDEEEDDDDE


Assays:
[1] = target: T1, HMGB1(disulfide), disulfide linked form …; experiment: QCM (Attana A200); polypeptide captured on HSA, HMGB1(disulfide) injected; 1:1 or 1:2 model, relevant kd (most represented)
Method: (§1) Binding analysis: The Attana A200® biosensor was used to characterize interactions between the dimeric polypeptides (SEQ ID NO:38-48) and HMGB1(red) under reducing conditions and/or HMGB1(disulfide) under non-reducing conditions. The monomeric ZA3812 (SEQ ID NO:35) was included for comparison. The experiment was performed as a capture assay, in which HSA was immobilized on Attana's sensor chip Low-NonSpecific-Binding (LNB). Immobilization was performed using amine coupling. The instrument has two sensor surfaces and HSA was immobilized on both surfaces. Around 110 Hz of HSA was stably immobilized on the surfaces.
(§2) In the kinetic experiment, HBS-EP+/−2 mM DTT was used as running buffer and the flow rate was 25 μl/min at 22° C. In each cycle, one polypeptide was tested against one concentration of HMGB1. […] The analyte HMGB1(reduced) was diluted in HBS-EP+2 mM DTT within a concentration range of 1.33 to 21.4 μg/ml, and the analyte HMGB1(disulfide) was diluted in HBS-EP buffer within a concentration range of 0.62 to 10 μg/ml. Both analytes were subsequently injected for 84 s over both channel A and B, where channel B was used as a blank surface for curve subtraction. Buffer injections were also made for surface subtractions. After dissociation, the surfaces were regenerated with a 30 s injection of 100 mM HCl followed by a 30 s injection of 20 mM NaOH. Data was collected by Attester Software and subsequently processed in the Evaluation Software. To calculate the kinetic parameters (kₐ and kd) and affinity constant (KD), the experimental data were fitted using a 1:1 or a 1:2 binding model.
(§3) Binding analysis of dimeric polypeptides targeting HMGB1: The interactions of a set of dimeric polypeptides, as well as one monomeric polypeptide, with HMGB1(reduced) and/or HMGB1(disulfide) were analyzed using an Attana A200® biosensor instrument by injecting various concentrations of HMGB1 over a surface containing captured polypeptides in fusion with ABD bound by immobilized HSA.

[2] = target: T1, HMGB1(disulfide), disulfide linked form …; experiment: QCM (Attana A200); polypeptide captured on HSA, HMGB1(disulfide) injected; 1:1 or 1:2 model, average KD
Method: as §1, §2, §3

[3] = target: T3, human serum albumin (HSA) (human, UniProt P02768 25-609); experiment: QCM (Attana A200); capture on immobilized HSA
T3 construct: Immobilized on sensor chips to capture ABD (PP013) fusions
T3 sequence (P02768 25-609 limits assumed): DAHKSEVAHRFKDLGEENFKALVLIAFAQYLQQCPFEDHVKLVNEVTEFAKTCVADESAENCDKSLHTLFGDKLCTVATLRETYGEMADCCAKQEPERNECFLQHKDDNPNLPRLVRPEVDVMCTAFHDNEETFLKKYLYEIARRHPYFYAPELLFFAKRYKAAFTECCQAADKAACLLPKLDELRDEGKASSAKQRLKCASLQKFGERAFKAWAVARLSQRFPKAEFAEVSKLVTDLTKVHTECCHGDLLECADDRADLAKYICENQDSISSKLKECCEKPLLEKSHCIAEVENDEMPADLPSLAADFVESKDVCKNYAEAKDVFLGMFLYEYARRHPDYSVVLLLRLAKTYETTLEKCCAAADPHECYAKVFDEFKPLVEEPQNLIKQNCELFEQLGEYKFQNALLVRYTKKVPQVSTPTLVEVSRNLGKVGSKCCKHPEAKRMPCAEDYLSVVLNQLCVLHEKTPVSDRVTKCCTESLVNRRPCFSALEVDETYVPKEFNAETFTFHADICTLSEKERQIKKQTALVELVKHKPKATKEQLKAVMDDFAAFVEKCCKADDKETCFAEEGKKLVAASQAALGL

[4] = target: T2, HMGB1(red), fully reduced form of …; experiment: cell-based or functional assay
[5] = target: T2, HMGB1(red), fully reduced form of …; experiment: QCM (Attana A200); polypeptide captured on HSA, HMGB1(red) injected, 2 mM DTT; 1:1 or 1:2 model, relevant kd (most represented)
Method: as §1, §2, §3

[6] = target: T2, HMGB1(red), fully reduced form of …; experiment: QCM (Attana A200); polypeptide captured on HSA, HMGB1(red) injected, 2 mM DTT; 1:1 or 1:2 model, average KD
Method: as §1, §2, §3

[7] = target: T2, HMGB1(red), fully reduced form of …; experiment: SPR (Biacore 2000); target immobilized on CM5, His6-Z variant injected 50-1350 nM; 1:1 model
Method: (§4) Binding analysis of mutated Z variants: A binding analysis was performed using a Biacore 2000 instrument. All alanine mutated Z variants, together with the original Z variant ZH 01, were analyzed against GST-boxA(red), HMGB1(red), boxA(disulfide) and HMGB1(disulfide). The immobilizations and Biacore analyses were performed essentially as described in Example 3. However, in these analyses, the different targets were directly coupled to separate flow cells of different CM5 chip surfaces and a flow rate of 30 μl/min was used. The ligand immobilization levels on the surfaces were 1410 RU for GST-boxA(red), 1380 RU for HMGB1(red), 540 RU for boxA(disulfide) and 2900 RU for HMGB1(disulfide). The analytes, i.e. the Z variants, were each diluted in HBS-EP buffer (or in HBS-EP+2 mM DTT for use in analysis with reduced targets GST-boxA(red) and HMGB1(red)), within a concentration range of 50 to 1350 nM and injected for 3 min, followed by dissociation in running buffer for 35 min. No regeneration buffer was used in the analyses. Instead, the dissociation time was enough for all binders to dissociate from the chip surfaces. HBS-EP was used as running buffer for targets boxA(disulfide) and HMGB1(disulfide) while HBS-EP+2 mM DTT was used for reduced targets GST-boxA(red) and HMGB1(red). The dissociation constants were calculated as in Example 3.
(§5) Binding analysis of mutated Z variants: The interaction of HMGB1 with ZH 01 and the 13 mutated variants thereof was analyzed in a Biacore instrument by injecting various concentrations of the Z variants over surfaces containing immobilized GST-boxA(red), HMGB1(red), boxA(disulfide) and HMGB1(disulfide), respectively. A summary of the dissociation constants from the experiments, which were obtained by using a 1:1 interaction model, is given in Table 12.

[8] = target: T1, HMGB1(disulfide), disulfide linked form …; experiment: as above
Method: as §4, §5

[9] = target: T4, GST-boxA(red), reduced form of A-box domain of HMGB1 with N-terminal GST tag (human, cysteines reduced); experiment: as above
T4 construct: Used biotinylated (b-GST-boxA(red)) in ELISA; also called b-GST-boxA(red)
Method: as §4, §5

Binder | koff [1] | Kd [2] | binding result [3] | IC50 of inhibition of HMGB1 induced cell migration [4] | koff [5] | Kd [6] | Kd [7] | Kd [8] | Kd [9]
ZZA4261, Z(boxA)-L2-Z(boxB)-ABD (designed binder, Heterodimer of ZH27 and ZH32 with PP013) AEAKYAKEDWDAFWEIIWLPNLTDAQQRAFIYKLEDDPSQSSELLSEAKKLNDSQAPKGAPGGGGSTSAEAKYAKEAWLAEQEIWQLPNLTEAQFQAFILKLIDDPSQSSELLSEAKKLNDSQAPKASGSLAEAKEAANAELDSYGVSDFYKRLIDKAKTVEGVEALKDAILAALP | 0.0014 s⁻¹ | 11 nM | binds |  |  |  |  |  | 
ZAZ4015, Z(boxA)-ABD-L3-Z(boxB) (designed binder, Heterodimer of ZH01 and ZH31 with PP013 in the middle) VDAKYAKEDWDAFWEIIWLPNLTDAQQRAFIYKLEDDPSQSSELLSEAKKLNDSQAPKASGSLAEAKEAANAELDSYGVSDFYKRLIDKAKTVEGVEALKDAILAALPGTGGGGSVDAKYAKEAWLAEQEIWQLPNLTEAQFQAFILKLIDDPSQSSELLSEAKKLNDSQAPK | 0.0013 s⁻¹ | 35 nM | binds | > 1 nM | 0.0004 s⁻¹ | 20 nM |  |  | 
His6-tagged ZH15 (ZH 01 W10A), MGSSHHHHHHLQ-[ZH15]-VD (designed binder) MGSSHHHHHHLQVDAKYAKEDADAFWEIIWLPNLTDAQQRAFIYKLEDDPSQSSELLSEAKKLNDSQAPKVD |  |  |  |  |  |  | 570 nM | 12000 nM | 
His6-tagged ZH24 (ZH 01 R28A), MGSSHHHHHHLQ-[ZH24]-VD (designed binder) MGSSHHHHHHLQVDAKYAKEDWDAFWEIIWLPNLTDAQQAAFIYKLEDDPSQSSELLSEAKKLNDSQAPKVD |  |  |  |  |  |  | 680 nM | 7800 nM | 
His6-tagged ZH19 (ZH 01 I17A), MGSSHHHHHHLQ-[ZH19]-VD (designed binder) MGSSHHHHHHLQVDAKYAKEDWDAFWEIAWLPNLTDAQQRAFIYKLEDDPSQSSELLSEAKKLNDSQAPKVD |  |  |  |  |  |  |  | 3100 nM | 
His6-tagged ZH18 (ZH 01 W14A), MGSSHHHHHHLQ-[ZH18]-VD (designed binder) MGSSHHHHHHLQVDAKYAKEDWDAFAEIIWLPNLTDAQQRAFIYKLEDDPSQSSELLSEAKKLNDSQAPKVD |  |  |  |  |  |  | 290 nM | 2200 nM | 370 nM
His6-tagged ZH26 (ZH 01 E35A), MGSSHHHHHHLQ-[ZH26]-VD (designed binder) MGSSHHHHHHLQVDAKYAKEDWDAFWEIIWLPNLTDAQQRAFIYKLADDPSQSSELLSEAKKLNDSQAPKVD |  |  |  |  |  |  | 110 nM | 2400 nM | 220 nM
His6-tagged ZH25 (ZH 01 Y32A), MGSSHHHHHHLQ-[ZH25]-VD (designed binder) MGSSHHHHHHLQVDAKYAKEDWDAFWEIIWLPNLTDAQQRAFIAKLEDDPSQSSELLSEAKKLNDSQAPKVD |  |  |  |  |  |  |  | 7800 nM | 
His6-tagged ZH17 (ZH 01 F13A), MGSSHHHHHHLQ-[ZH17]-VD (designed binder) MGSSHHHHHHLQVDAKYAKEDWDAAWEIIWLPNLTDAQQRAFIYKLEDDPSQSSELLSEAKKLNDSQAPKVD |  |  |  |  |  |  |  | 6800 nM | 
ZZA4262, Z(boxB)-L1-Z(boxA)-ABD (designed binder, Heterodimer of ZH27 and ZH32 with PP013) AEAKYAKEAWLAEQEIWQLPNLTEAQFQAFILKLIDDPSQSSELLSEAKKLNDSQAPKGAPGGGGSGGGGSGGGGSTSAEAKYAKEDWDAFWEIIWLPNLTDAQQRAFIYKLEDDPSQSSELLSEAKKLNDSQAPKASGSLAEAKEAANAELDSYGVSDFYKRLIDKAKTVEGVEALKDAILAALP | 0.00098 s⁻¹ | 5.4 nM | binds |  |  |  |  |  | 
ZZA4012, Z(boxB)-L1-Z(boxA)-ABD (designed binder, Heterodimer of ZH01 and ZH31 with PP013) VDAKYAKEAWLAEQEIWQLPNLTEAQFQAFILKLIDDPSQSSELLSEAKKLNDSQAPKGAPGGGGSGGGGSGGGGSTSVDAKYAKEDWDAFWEIIWLPNLTDAQQRAFIYKLEDDPSQSSELLSEAKKLNDSQAPKASGSLAEAKEAANAELDSYGVSDFYKRLIDKAKTVEGVEALKDAILAALP | 0.00045 s⁻¹ | 18 nM | binds | ≤ 0.1 nM | 0.00046 s⁻¹ | 3 nM |  |  | 
ZZA4053, Z(boxA)-L1-Z(boxA)-ABD (designed binder, Homodimer of ZH27 with PP013) AEAKYAKEDWDAFWEIIWLPNLTDAQQRAFIYKLEDDPSQSSELLSEAKKLNDSQAPKGAPGGGGSGGGGSGGGGSTSAEAKYAKEDWDAFWEIIWLPNLTDAQQRAFIYKLEDDPSQSSELLSEAKKLNDSQAPKASGSLAEAKEAANAELDSYGVSDFYKRLIDKAKTVEGVEALKDAILAALP | 0.00062 s⁻¹ | 97 nM | binds |  | 0.013 s⁻¹ | 95 nM |  |  | 
ZZA4010, Z(boxA)-L1-Z(boxB)-ABD (designed binder, Heterodimer of ZH01 and ZH31 with PP013) VDAKYAKEDWDAFWEIIWLPNLTDAQQRAFIYKLEDDPSQSSELLSEAKKLNDSQAPKGAPGGGGSGGGGSGGGGSTSVDAKYAKEAWLAEQEIWQLPNLTEAQFQAFILKLIDDPSQSSELLSEAKKLNDSQAPKASGSLAEAKEAANAELDSYGVSDFYKRLIDKAKTVEGVEALKDAILAALP | 0.001 s⁻¹ | 70 nM | binds |  | 0.00055 s⁻¹ | 4.4 nM |  |  | 
ZZA4013, Z(boxB)-L2-Z(boxA)-ABD (designed binder, Heterodimer of ZH01 and ZH31 with PP013) VDAKYAKEAWLAEQEIWQLPNLTEAQFQAFILKLIDDPSQSSELLSEAKKLNDSQAPKGAPGGGGSTSVDAKYAKEDWDAFWEIIWLPNLTDAQQRAFIYKLEDDPSQSSELLSEAKKLNDSQAPKASGSLAEAKEAANAELDSYGVSDFYKRLIDKAKTVEGVEALKDAILAALP | 0.00066 s⁻¹ | 32 nM | binds | 0.2 nM | 0.00042 s⁻¹ | 3.2 nM |  |  | 
